# Test results reported in the supplement of paper PMC8728848.
# The other results are listed elsewhere or left out.
# B1: BT3172pd (Bacteroides thetaiotaomicron) (protein)
# chain: MLPLRAEHYYYKQISLKEGLPSNVRCILRDEQGFIWIGTKAGLGKFDGHQLKRYKHQANDPHSLLHNLIYQIAEDKQHNIWILTEKGIARYQQQSNNFTFPTDEEGNYITAYSFCLVPDGILFGGKDRIYKYSYKDSSLRLLQYFNANSFKITALSVWDSKTLLCCSRWTGLYLVDLQTGEHRRPPFDCGPEITSMITDSKNRIWIAPYSGGLRCYSRDGKLSASYTTHNSSLSNDIVLSLAEREEQLWIGTDGGGINILHPETGEISQLEYIPGRENYSLPANSILCLHNDYNNNVWAGSTCNGLISIREVSMKTYTDVVPGNDRGLSNGTVRSLYRQSPDSIWIGTDGGGINLFSPHTEKFTHYSSTWGDKVAFISGFTPGKLLISLFSKGVFVFNPATGEKQPFTIIDKETTTRLCNRGKSVNLYQNTPNTVLFLGDHIYQYHLKEKKFSTITEEEGKDIVGTLVPFDHQENLTYINDIKHIYELDDQTSRLKTVFECYTDTVISSVSHDEQGHFWIGSNFGLIHYDPVLKSRTLVPTNLFTEINMVLCDQKGKVWIGVDNMLFAYFIKEQKFVLFGESNGAIQNEYLPNARLVNEQGDAYIGGVKGMLRIDGQLLLNTSEMPELQLLDITINGESANHEWYNHPAKISVPWNSNISIRIMSREEDIFRQKIYRYQIEGLNNEYTESYNPELVIRSLLPGSYRIMASCTAKDGSWIPDQQVLELTVLPPWYRTHHHHHH
# Tests used:
# Assay in all cases: glycan array binding signal (z-score within array); higher = stronger binding
# Details in all cases: glycan notation: IUPAC condensed, linker removed
# [1] = target: Fuc(a1-2)Gal
# Procedure, shortened: (§1)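 The Consortium for Functional Glycomics database supplied 3228 glycan arrays, of which those lacking an available protein sequence were dropped. The binding signal, a within-array Z-score, was averaged across arrays of the same protein sequence and across linkers. Negative scores can be read as non-binding.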
# [2] = target: Fuc(a1-2)Gal(b1-3)GalNAc
# Procedure, shortened: as §1
# [3] = target: Fuc(a1-2)Gal(b1-3)GalNAc(a1-3)[Fuc(a1-2)]Gal(b1-4)Glc
# Procedure, shortened: as §1
# [4] = target: Fuc(a1-2)Gal(b1-3)GalNAc(a1-3)[Fuc(a1-2)]Gal(b1-4)GlcNAc
# Procedure, shortened: as §1
# [5] = target: Fuc(a1-2)Gal(b1-3)GalNAc(b1-3)Gal
# Procedure, shortened: as §1
# [6] = target: Fuc(a1-2)Gal(b1-3)GalNAc(b1-3)Gal(a1-4)Gal(b1-4)Glc
# Procedure, shortened: as §1
# [7] = target: Fuc(a1-2)Gal(b1-3)GalNAc(b1-4)[Neu5Ac(a2-3)]Gal(b1-4)Glc
# Procedure, shortened: as §1
# [8] = target: Fuc(a1-2)Gal(b1-3)GlcNAc
# Procedure, shortened: as §1
# [9] = target: Fuc(a1-2)Gal(b1-3)GlcNAc(b1-2)Man(a1-3)[Fuc(a1-2)Gal(b1-3)GlcNAc(b1-2)Man(a1-6)]Man(b1-4)GlcNAc(b1-4)GlcNAc
# Procedure, shortened: as §1
# [10] = target: Fuc(a1-2)Gal(b1-3)GlcNAc(b1-2)Man(a1-3)[Fuc(a1-2)Gal(b1-3)GlcNAc(b1-2)Man(a1-6)]Man(b1-4)GlcNAc(b1-4)[Fuc(a1-6)]GlcNAc
# Procedure, shortened: as §1
# [11] = target: Fuc(a1-2)Gal(b1-3)GlcNAc(b1-3)Gal(b1-4)Glc
# Procedure, shortened: as §1
# [12] = target: Fuc(a1-2)Gal(b1-3)GlcNAc(b1-3)GalNAc
# Procedure, shortened: as §1
# [13] = target: Fuc(a1-2)Gal(b1-3)GlcNAc(b1-3)[Fuc(a1-2)Gal(b1-3)GlcNAc(b1-6)]GalNAc
# Procedure, shortened: as §1
# [14] = target: Fuc(a1-2)Gal(b1-3)GlcNAc(b1-3)[Gal(b1-4)GlcNAc(b1-6)]Gal(b1-4)Glc
# Procedure, shortened: as §1
# [15] = target: Fuc(a1-2)Gal(b1-3)GlcNAc(b1-3)[Neu5Ac(a2-6)Gal(b1-4)GlcNAc(b1-6)]Gal(b1-4)Glc
# Procedure, shortened: as §1
# [16] = target: Fuc(a1-2)Gal(b1-3)GlcNAc6S
# Procedure, shortened: as §1
# [17] = target: Fuc(a1-2)Gal(b1-3)[Fuc(a1-4)]GlcNAc
# Procedure, shortened: as §1
# [18] = target: Fuc(a1-2)Gal(b1-3)[Fuc(a1-4)]GlcNAc(b1-2)Man(a1-3)[Fuc(a1-2)Gal(b1-3)[Fuc(a1-4)]GlcNAc(b1-2)Man(a1-3)]Man(b1-4)GlcNAc(b1-4)GlcNAc
# Procedure, shortened: as §1
# [19] = target: Fuc(a1-2)Gal(b1-3)[Fuc(a1-4)]GlcNAc(b1-2)Man(a1-3)[Fuc(a1-2)Gal(b1-3)[Fuc(a1-4)]GlcNAc(b1-2)Man(a1-6)]Man(b1-4)GlcNAc(b1-4)[Fuc(a1-6)]GlcNAc(b1-4)[Fuc(a1-6)]GlcNAc
# Procedure, shortened: as §1
# [20] = target: Fuc(a1-2)Gal(b1-3)[Fuc(a1-4)]GlcNAc(b1-3)[Fuc(a1-3)[Gal(b1-4)]GlcNAc(b1-6)]Gal(b1-4)Glc
# Procedure, shortened: as §1
# [21] = target: Fuc(a1-2)Gal(b1-3)[Fuc(a1-4)]GlcNAc(b1-3)[Gal(b1-4)GlcNAc(b1-6)]Gal(b1-4)Glc
# Procedure, shortened: as §1
# [22] = target: Fuc(a1-2)Gal(b1-4)Glc
# Procedure, shortened: as §1
# [23] = target: Fuc(a1-2)Gal(b1-4)Glc6S
# Procedure, shortened: as §1
# [24] = target: Fuc(a1-2)Gal(b1-4)GlcNAc
# Procedure, shortened: as §1
# [25] = target: Fuc(a1-2)Gal(b1-4)GlcNAc(b1-2)Man
# Procedure, shortened: as §1
# [26] = target: Fuc(a1-2)Gal(b1-4)GlcNAc(b1-2)Man(a1-3)[Fuc(a1-2)Gal(b1-4)GlcNAc(b1-2)Man(a1-6)]Man(b1-4)GlcNAc(b1-4)GlcNAc
# Procedure, shortened: as §1
# [27] = target: Fuc(a1-2)Gal(b1-4)GlcNAc(b1-2)Man(a1-3)[Fuc(a1-2)Gal(b1-4)GlcNAc(b1-2)Man(a1-6)]Man(b1-4)GlcNAc(b1-4)[Fuc(a1-6)]GlcNAc
# Procedure, shortened: as §1
# [28] = target: Fuc(a1-2)Gal(b1-4)GlcNAc(b1-2)[Fuc(a1-2)Gal(b1-4)GlcNAc(b1-4)]Man(a1-3)[Fuc(a1-2)Gal(b1-4)GlcNAc(b1-2)Man(a1-6)]Man(b1-4)GlcNAc(b1-4)GlcNAc
# Procedure, shortened: as §1
# [29] = target: Fuc(a1-2)Gal(b1-4)GlcNAc(b1-3)Gal(b1-4)GlcNAc
# Procedure, shortened: as §1
# [30] = target: Fuc(a1-2)Gal(b1-4)GlcNAc(b1-3)Gal(b1-4)GlcNAc(b1-2)Man(a1-3)[Fuc(a1-2)Gal(b1-4)GlcNAc(b1-3)Gal(b1-4)GlcNAc(b1-2)Man(a1-6)]Man(b1-4)GlcNAc(b1-4)GlcNAc
# Procedure, shortened: as §1
# [31] = target: Fuc(a1-2)Gal(b1-4)GlcNAc(b1-3)Gal(b1-4)GlcNAc(b1-3)Gal(b1-4)GlcNAc
# Procedure, shortened: as §1
# [32] = target: Fuc(a1-2)Gal(b1-4)GlcNAc(b1-3)GalNAc
# Procedure, shortened: as §1
# [33] = target: Fuc(a1-2)Gal(b1-4)GlcNAc(b1-3)[Fuc(a1-2)Gal(b1-4)GlcNAc(b1-6)]GalNAc
# Procedure, shortened: as §1
# [34] = target: Fuc(a1-2)Gal(b1-4)GlcNAc(b1-3)[Fuc(a1-3)[Gal(b1-4)]GlcNAc(b1-6)]Gal(b1-4)Glc
# Procedure, shortened: as §1
# [35] = target: Fuc(a1-2)Gal(b1-4)GlcNAc(b1-6)GalNAc
# Procedure, shortened: as §1
# [36] = target: Fuc(a1-2)Gal(b1-4)GlcNAc6S
# Procedure, shortened: as §1
# [37] = target: Fuc(a1-2)Gal(b1-4)[Fuc(a1-3)]GlcNAc
# Procedure, shortened: as §1
# [38] = target: Fuc(a1-2)Gal(b1-4)[Fuc(a1-3)]GlcNAc(b1-2)Man(a1-3)[Fuc(a1-2)Gal(b1-4)[Fuc(a1-3)]GlcNAc(b1-2)Man(a1-6)]Man(b1-4)GlcNAc(b1-4)[Fuc(a1-6)]GlcNAc
# Procedure, shortened: as §1
# [39] = target: Fuc(a1-2)Gal(b1-4)[Fuc(a1-3)]GlcNAc(b1-2)[Fuc(a1-2)Gal(b1-4)[Fuc(a1-3)]GlcNAc(b1-4)]Man(a1-3)[Fuc(a1-2)Gal(b1-4)[Fuc(a1-3)]GlcNAc(b1-2)Man(a1-6)]Man(b1-4)GlcNAc(b1-4)GlcNAc
# Procedure, shortened: as §1
# [40] = target: Fuc(a1-2)Gal(b1-4)[Fuc(a1-3)]GlcNAc(b1-3)Gal(b1-4)[Fuc(a1-3)]GlcNAc
# Procedure, shortened: as §1
# [41] = target: Fuc(a1-2)Gal(b1-4)[Fuc(a1-3)]GlcNAc(b1-3)Gal(b1-4)[Fuc(a1-3)]GlcNAc(b1-3)Gal(b1-4)[Fuc(a1-3)]GlcNAc
# Procedure, shortened: as §1
# [42] = target: Fuc(a1-2)Gal(b1-4)[Fuc(a1-3)]GlcNAc(b1-3)GalNAc
# Procedure, shortened: as §1
# [43] = target: Fuc(a1-2)Gal(b1-4)[Fuc(a1-3)]GlcNAc(b1-3)[Neu5Ac(a2-6)Gal(b1-4)GlcNAc(b1-6)]Gal(b1-4)Glc
# Procedure, shortened: as §1
# [44] = target: Fuc(a1-2)Gal3S(b1-4)GlcNAc
# Procedure, shortened: as §1
# [45] = target: Fuc(a1-2)Gal6S(b1-3)GlcNAc
# Procedure, shortened: as §1
binder,measurement,setting,value
B1,glycan array binding signal (z-score),[1],-0.209
same,glycan array binding signal (z-score),[2],0.849
same,glycan array binding signal (z-score),[3],-0.448
same,glycan array binding signal (z-score),[4],0.168
same,glycan array binding signal (z-score),[5],-1.16
same,glycan array binding signal (z-score),[6],-0.759
same,glycan array binding signal (z-score),[7],-0.528
same,glycan array binding signal (z-score),[8],-0.382
same,glycan array binding signal (z-score),[9],1.38
same,glycan array binding signal (z-score),[10],0.525
same,glycan array binding signal (z-score),[11],-0.408
same,glycan array binding signal (z-score),[12],0.048
same,glycan array binding signal (z-score),[13],1.22
same,glycan array binding signal (z-score),[14],-0.141
same,glycan array binding signal (z-score),[15],0.175
same,glycan array binding signal (z-score),[16],0.134
same,glycan array binding signal (z-score),[17],1.7
same,glycan array binding signal (z-score),[18],1.5
same,glycan array binding signal (z-score),[19],0.063
same,glycan array binding signal (z-score),[20],-0.406
same,glycan array binding signal (z-score),[21],-0.343
same,glycan array binding signal (z-score),[22],-0.491
same,glycan array binding signal (z-score),[23],-0.029
same,glycan array binding signal (z-score),[24],-0.379
same,glycan array binding signal (z-score),[25],-0.192
same,glycan array binding signal (z-score),[26],-0.502
same,glycan array binding signal (z-score),[27],-0.484
same,glycan array binding signal (z-score),[28],-0.389
same,glycan array binding signal (z-score),[29],-0.613
same,glycan array binding signal (z-score),[30],-0.419
same,glycan array binding signal (z-score),[31],-0.03
same,glycan array binding signal (z-score),[32],-0.024
same,glycan array binding signal (z-score),[33],-0.207
same,glycan array binding signal (z-score),[34],-0.126
same,glycan array binding signal (z-score),[35],1.07
same,glycan array binding signal (z-score),[36],0.882
same,glycan array binding signal (z-score),[37],0.165
same,glycan array binding signal (z-score),[38],-0.54
same,glycan array binding signal (z-score),[39],0.127
same,glycan array binding signal (z-score),[40],-0.649
same,glycan array binding signal (z-score),[41],-0.611
same,glycan array binding signal (z-score),[42],-0.425
same,glycan array binding signal (z-score),[43],-0.441
same,glycan array binding signal (z-score),[44],-0.052
same,glycan array binding signal (z-score),[45],0.303
